The campaign covered roughly 110,000 compounds. About 230 (0.21%) showed an effect of 50% or more. The list shows a part of the results.
Target: DPAP1 (Plasmodium falciparum, UniProt Q8IIJ9)
Experiment: primary screen, percent inhibition; read by cleavage of a fluorogenic dipeptide substrate; higher = more effect of the substance
Parameters: species or system P. falciparum D10 trophozoite lysates; single well
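Also: 30 min substrate incubation versus DMSO and 10 µM JCP410 controls.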

Chain of DPAP1 (Q8IIJ9 whole entry, looked up): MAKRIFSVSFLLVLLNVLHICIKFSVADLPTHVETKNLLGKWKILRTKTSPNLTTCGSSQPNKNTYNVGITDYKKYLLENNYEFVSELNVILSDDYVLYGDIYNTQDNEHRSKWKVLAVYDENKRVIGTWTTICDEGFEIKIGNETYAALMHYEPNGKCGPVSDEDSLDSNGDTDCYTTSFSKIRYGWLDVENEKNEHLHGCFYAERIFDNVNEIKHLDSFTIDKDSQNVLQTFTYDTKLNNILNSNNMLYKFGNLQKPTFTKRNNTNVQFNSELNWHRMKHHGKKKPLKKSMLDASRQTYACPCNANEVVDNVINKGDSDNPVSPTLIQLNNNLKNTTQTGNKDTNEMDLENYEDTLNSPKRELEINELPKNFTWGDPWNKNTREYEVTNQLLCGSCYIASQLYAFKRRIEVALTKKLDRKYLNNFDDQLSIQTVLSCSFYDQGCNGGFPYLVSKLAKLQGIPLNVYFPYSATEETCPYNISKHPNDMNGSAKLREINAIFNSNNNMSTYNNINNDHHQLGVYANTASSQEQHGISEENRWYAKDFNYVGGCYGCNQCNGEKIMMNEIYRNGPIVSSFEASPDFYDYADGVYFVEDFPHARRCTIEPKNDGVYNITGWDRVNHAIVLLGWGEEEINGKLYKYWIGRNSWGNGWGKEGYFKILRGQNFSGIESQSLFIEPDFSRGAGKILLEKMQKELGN

SMILES | % Inhibition @ 10 uM [%]
Cc1ccc(S(=O)(=O)CCc2nc3ccccc3[nH]2)cc1 | -2.39
CCN(CC)S(=O)(=O)N1C=Cc2ccccc2C1c1c[nH]c2ccccc12 (stereo not shown) | -1.15
OC1CCCN(Cc2c(F)cccc2Cl)C1 (stereo not shown) | -1.5
CCCCc1nnc(NC(=O)c2sc(C)nc2C)s1 | -0.946
COc1ccc(-c2nc(Nc3cnc(SC)nc3)sc2C)cc1 | -4.19
CC(=O)N1N=C2/C(=C/c3ccccc3)CCCC2C1c1ccccc1 (stereo not shown) | -5.5
CC1CC(C)CN(CCCNC(=O)CNC(=O)Cn2ccc3ccccc3c2=O)C1 (stereo not shown) | -4.06
Clc1cccc(-c2ncnn2-c2ccc(Br)cn2)c1Cl | -4.32
Cc1ccc(NCC(O)COc2ccc(OCC(O)CNc3ccc(C)cc3)cc2)cc1 (stereo not shown) | 0.565
O=C1NC(=O)/C(=C/C(=O)c2ccccc2)N1 | 3.15
CCOc1ccccc1NC(=O)C1=C(C)NC(=O)NC1c1ccc(Br)cc1 (stereo not shown) | -0.865
Cc1ccc(C)n1-c1cc(C(=O)O)cc(C(=O)O)c1 | 1.26
Cc1cccc(CCNC(=O)C(NS(=O)(=O)c2cccc3nsnc23)c2ccccc2)c1 (stereo not shown) | -3.23
NC(=O)C1CCN(C2CCSC2)CC1 (stereo not shown) | -5.44
O=C1NC(c2ccc(Br)cc2)=N/C1=C/c1ccc(Cl)cc1Cl | -1.98
O=C(Nc1ccccn1)c1noc2c1CSc1ccccc1-2 | -1.72
CCOC(=O)c1c(N)sc2c1CCc1ccccc1-2 | 18.3
CCC(C)C(NCCC(=O)c1ccc(Br)cc1)C(=O)O (stereo not shown) | -7.23
N#CC1=C(N)N(c2ccc(Br)cc2)C2=C(C(=O)CCC2)C1c1ccsc1 (stereo not shown) | 6.84
Cn1cnc2c(=O)oc3ccc(S(=O)(=O)N4CCc5ccccc5C4)cc3c21 | -5.73
O=C(NC1CCCCCC1)c1ccc(Cl)c([N+](=O)[O-])c1 | -4.3
CCN(CC)CCN1C(=O)C(O)=C(C(=O)c2ccc(F)cc2)C1c1ccc(C)cc1 (stereo not shown) | 1.02
CCOC(=O)c1ccc(NC(=O)C2CC2(c2ccccc2)c2ccccc2)cc1 (stereo not shown) | -5.78
CCn1c2ccccc2c2cc(CN3CCC(O)CC3)ccc21 | 4.04
COc1ccc(OC)c(-n2c(SCC(=O)NCc3ccco3)nnc2-c2c[nH]c3ccccc23)c1 | -1.3
CCOC(=O)C1=NNCC1C(=O)OCC (stereo not shown) | -4.06

SMILES | % Inhibition @ 10 uM [%]
COc1ccc(CN2CCN(Cc3ccc(Cl)cc3)CC2)c(OC)c1 | 10.1
C=CCN1C(=S)NC2c3cccc(OCC)c3OC1(C)C2C (stereo not shown) | 0.813
CC1CCN(C(=O)Cn2cccc2C(=O)c2ccccc2)CC1 | 0.0882
CC1=C(C(=O)OCCc2ccccc2)C(c2coc3ccccc3c2=O)C2=C(O)CC(C)(C)CC2=N1 (stereo not shown) | 18.2
Nc1ccc2[nH]c(-c3ccco3)nc2c1 | 5.31
C/C=C(\C)CN1CCN(c2ccccc2F)CC1 | 2.7
COc1ccccc1C1C(C#N)=C(N)Oc2[nH]nc(-c3ccccc3)c21 (stereo not shown) | -2.78
Cc1ccc(NC(=O)c2cccc(Cl)c2)nc1 | 3.24
O=C(O)c1ccc(CNC2CCCCC2)s1 | -3.61
COc1ccc2c(c1)CCC1C2=NN(C(C)=O)C1c1ccc([N+](=O)[O-])cc1 (stereo not shown) | 0.937
CC(C)(C)n1ncc2c(=O)n(CC(=O)c3ccc(Cl)cc3)cnc21 | -0.0309
CCOC(=O)c1ccc(CNCc2cccc(OCc3ccccc3)c2)cc1 | -5.88
COc1ccc(OC)c(CCNC(=O)C(C)n2nc(C)c3sc4ccccc4c3c2=O)c1 (stereo not shown) | -3.93
Cc1cc(C)nc(/N=C(\N)Nc2ccc(F)cc2)n1 | -2.07
Nc1nc(CN2CCN(c3ccccc3)CC2)nc(Nc2ccccc2)n1 | -0.872
Cc1cc(C)cc(OCCCCc2c(C)n[nH]c2C)c1 | -0.569
COc1ccc(-c2csc(Nc3cccc4ccccc34)n2)cc1F | -2
Cc1ccc(C2C(C#N)=C(N)Oc3[nH]nc(-c4ccc(Br)cc4)c32)o1 (stereo not shown) | -2.77
CC(C(=O)N1CCc2ccccc2C1)n1ncc2ccccc21 (stereo not shown) | 2.04
CC1=C(C(=O)OCc2ccccc2)C(c2ccccc2Br)NC(=O)N1 (stereo not shown) | -0.687
CC1=C(C(=O)OCCOC(C)C)C(c2cccc(Cl)c2Cl)CC(=O)N1 (stereo not shown) | 4.23
Cc1c(CC(=O)NCCc2ccccc2)c(=O)oc2cc(O)c(Cl)cc12 | -2.57
Cc1cccc(C)c1NC(=O)C(NC(=O)CN1C(=O)c2ccccc2C1=O)c1ccc(Cl)cc1 (stereo not shown) | -3.98
Cc1ccc(-c2nn(CC(=O)NCc3cccnc3)c(=O)c3ccccc23)cc1 | -5.03
COCCn1c(SCC(N)=O)nc2c(oc3ccccc32)c1=O | -4.34
CCCN1Cc2cccc(C(=O)NCc3ccc(F)cc3)c2C1=O | 1.23

SMILES | % Inhibition @ 10 uM [%]
COc1ccc(C2(CCNCc3ccc(N(C)C)cc3)CCOC(C)(C)C2)cc1 (stereo not shown) | 17.5
O=[N+]([O-])c1ccc(S(=O)(=O)N2CCC(Cc3ccccc3)CC2)cc1 | 7.13
CN1CSC2=C(C#N)C(c3ccccc3)CC(=O)N2C1 (stereo not shown) | 32.9
O=S(=O)(Nc1nccs1)c1ccc(NC(=S)Nc2ccccc2)cc1 | 1.33
O=S(=O)(Nc1ccccc1/N=C/C1=C(O)c2ccccc2CC1)c1ccccc1 | 3.05
c1nc(N2CCCCCC2)c2nc3n(c2n1)CCC3 | 4.28
O=C(CN1C(=O)CSc2ncccc21)NCc1ccccn1 | 1.03
CCn1c(C(O)c2cccc3ccccc23)nc2ccccc21 (stereo not shown) | 0.345
Cc1cccc(OCCSc2ncnc3[nH]cnc23)c1 | 14.9
O=C(CSc1ccc(-c2cccs2)nn1)N1CCOCC1 | 5.85
Cc1ccc(C2=NN=C(NC(=O)C(F)(F)F)SC2)cc1 | -0.551
Cn1c2ccccc2c2c(C(=O)N3CCCCC3)cn(C3CCCCC3)c(=O)c21 | 6.59
COC(=O)c1cc2c(C)nn(-c3ccccc3)c2s1 | 4.7
CC(C)(C)c1ccc(C(=O)Nc2cccc(Cl)c2)cc1 | 0.98
O=C1c2cccc3cccc(c23)N1CN1CCN(c2ccc(F)cc2)CC1 | 1.87
Cc1ccc(-c2cc(C(=O)Nc3ccc(F)cc3)c3ccccc3n2)o1 | -1.22
COc1ccc(-n2cnc3nc(C)c(C(=O)/C=C/N(C)C)c(-c4ccccc4)c32)cc1 | -1.48
CCOc1ccc(C2C(C#N)=C(N)Oc3cc(C)n(CC4CCCO4)c(=O)c32)cc1OC (stereo not shown) | -1.11
Cc1ccsc1-c1ncnn1-c1ccc([N+](=O)[O-])cc1 | -1.96
CCC(C(=O)Nc1nn2c(-c3ccc(OC)c(OC)c3)nnc2s1)c1ccccc1 (stereo not shown) | -1.87
Cc1cc(O)nn2ncnc12 | 3.36
Cc1ccc(C(=O)O)cc1NC(=O)C1CCCO1 (stereo not shown) | -7.09
CCCS(=O)(=O)c1c(S(=O)(=O)CCC)c2c3ccccc3ccn2c1C(=O)OC | 2.34
CSc1ccc(C2C(C#N)=C(N)Oc3c2ccc2ccccc32)cc1 (stereo not shown) | 2.13
Cc1cccc(-c2nc(CSCC(=O)N3CCN(c4ccccn4)CC3)c(C)o2)c1 | 2.37
COc1cc(CNCC2CCCO2)ccc1OCc1ccccc1 (stereo not shown) | -3.25

SMILES | % Inhibition @ 10 uM [%]
CC1CCC(N2CCN(CCO)CC2)C1 (stereo not shown) | -1.41
CC1CN(C(=O)c2ccc(COc3ccc(C(C)(C)C)cc3)cc2)CC(C)O1 (stereo not shown) | 0.413
O=[N+]([O-])c1ccc(N2CCOCC2)c2ncccc12 | 2.5
CCn1c(S)nnc1-c1ccccc1OC | -5.51
Cc1ccc(Cl)cc1N1CCN(C(=O)CNS(=O)(=O)c2ccccc2)CC1 | -7.08
CC(C)CCn1c(CN2CCN(CCO)CC2)nc2c1c(=O)n(C)c(=O)n2C | 2
Oc1cccc(Nc2nc(N3CCOCC3)c3ccccc3n2)c1 | 2.97
CCN(CC)c1ccc(CN2CCN(C=O)CC2)cc1 | 0.472
Cc1ccc(C)c(Cn2c3ccccc3c3cnn(CC(=O)NCC4CCCO4)c(=O)c32)c1 (stereo not shown) | 1.8
Cc1ccc(C2CC(=O)CC(c3ccccc3)S2)cc1 (stereo not shown) | 4.67
Cc1ccnc(NC(=O)CCC2CCCC2)c1 | 0.907
CC1(C)CC(=O)C2=C(C1)N(c1nc[nH]n1)C(N)=C(C#N)C2c1cccnc1 (stereo not shown) | -4.61
CCC(C)C(=O)Nc1ccc(NC(=O)c2ccco2)cc1 (stereo not shown) | 2.84
Cc1nc2ccn(Cc3cccnc3)c(=O)c2cc1C(=O)N1CCOCC1 | 0.411
CN(Cc1ccccc1)C(=O)C1CCN(c2nnc(-n3cccc3)s2)CC1 | -2.25
CCC(C)Sc1nc(O)c2cnn(-c3ccccc3)c2n1 (stereo not shown) | 0.208
COCCCn1c(=O)c(C#N)cc2c(=O)n3ccccc3nc21 | 1.12
COc1ccccc1N(CC(=O)Nc1ccccc1Cl)S(=O)(=O)c1ccccc1 | -5.27
CC(C)NCC(O)COc1ccc(Cl)cc1 (stereo not shown) | -3.27
Cn1nnc2sc(-c3ccccc3)cc2c1=O | 2.41
O=c1c2oc3ccccc3c2n(Cc2ccc(F)cc2)c(=O)n1Cc1ccccc1 | 2.22
CCO/C(O)=C(\C#N)c1ccc(N2CCCCC2)nn1 | 0.937
Cc1ccc(C(=O)Nc2ccc(S(=O)(=O)N3CCc4ccccc43)cc2)cc1 | -2.3
Cc1noc(NS(=O)(=O)c2ccc(NC(=O)c3ccc(C(C)C)cc3)cc2)c1C | -1.42
c1cc(-c2nc3ccccc3s2)nc(-c2nc3ccccc3s2)c1 | -4.35
